# Assay results as given in paper PMC4336329 (PLoS ONE, 2015).
# In all, about 310,000 compounds went through this assay and about 2,200 (0.71%) showed an effect of 50% or more. Effects have a minus sign here. The list shows a part of the results.
# Target: human ether-à-go-go-related gene (hERG) potassium channel (human, UniProt Q12809)
# Test: primary screen, population patch clamp on CHO cells stably expressing hERG
# human ether-à-go-go-related gene (hERG) potassium channel, sequence (Q12809 whole entry, looked up): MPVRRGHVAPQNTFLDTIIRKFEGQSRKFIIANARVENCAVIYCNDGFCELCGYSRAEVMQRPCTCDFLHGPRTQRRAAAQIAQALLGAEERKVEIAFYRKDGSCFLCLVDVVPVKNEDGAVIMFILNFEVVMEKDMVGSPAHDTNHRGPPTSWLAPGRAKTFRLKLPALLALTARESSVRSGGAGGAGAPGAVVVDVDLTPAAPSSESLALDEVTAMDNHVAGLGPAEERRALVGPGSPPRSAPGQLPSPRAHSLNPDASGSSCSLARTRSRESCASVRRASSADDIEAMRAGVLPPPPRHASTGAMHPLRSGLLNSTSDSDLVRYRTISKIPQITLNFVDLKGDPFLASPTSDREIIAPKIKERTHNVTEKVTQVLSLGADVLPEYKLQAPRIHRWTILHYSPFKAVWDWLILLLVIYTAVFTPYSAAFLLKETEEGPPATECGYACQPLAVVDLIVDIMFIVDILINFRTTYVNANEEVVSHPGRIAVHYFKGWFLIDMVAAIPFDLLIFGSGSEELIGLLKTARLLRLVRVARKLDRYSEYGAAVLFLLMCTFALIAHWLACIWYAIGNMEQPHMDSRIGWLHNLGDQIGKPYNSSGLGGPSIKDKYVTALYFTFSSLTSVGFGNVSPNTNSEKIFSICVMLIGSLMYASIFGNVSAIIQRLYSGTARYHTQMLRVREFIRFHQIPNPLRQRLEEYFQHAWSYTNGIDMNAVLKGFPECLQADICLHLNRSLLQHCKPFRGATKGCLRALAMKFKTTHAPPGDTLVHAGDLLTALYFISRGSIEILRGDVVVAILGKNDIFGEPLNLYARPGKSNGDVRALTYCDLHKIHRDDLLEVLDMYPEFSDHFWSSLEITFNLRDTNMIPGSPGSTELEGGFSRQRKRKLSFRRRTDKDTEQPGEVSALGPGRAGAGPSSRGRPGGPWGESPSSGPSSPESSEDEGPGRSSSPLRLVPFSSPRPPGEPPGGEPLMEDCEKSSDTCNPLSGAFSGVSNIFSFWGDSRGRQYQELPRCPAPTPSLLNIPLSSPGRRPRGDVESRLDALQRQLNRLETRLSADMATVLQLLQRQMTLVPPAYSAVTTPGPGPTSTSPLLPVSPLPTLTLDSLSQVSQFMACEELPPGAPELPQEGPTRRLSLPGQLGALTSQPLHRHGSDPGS
row,Structure (SMILES),"hERG current change (%, negative = inhibition) at 1uM [%]"
1,CCOC(=O)c1[nH]ncc1CN1CCc2ccc(NC(=O)C3CCCO3)cc2C1 (stereo not shown),13.7
2,COc1ccc(-c2cc3nc(-c4ccccc4)cc(N4CCCC(O)C4)n3n2)cc1 (stereo not shown),11.9
3,CCOC(=O)CNC(=O)CSc1nc2c(C)cccc2cc1CC,11.7
4,COc1ccc(C(=O)Nc2ccc(Nc3ccccc3)cc2)cc1Br,6.15
5,Cc1cc(O)c(CN2CCN(S(=O)(=O)c3cccs3)CC2)cc1C(C)C,0.661
6,Cn1cnnc1SCC(=O)Nc1ccc(S(=O)(=O)N2CCCC2)cc1,-4.05
7,Cc1[nH]n2c(=O)c3c(nc2c1-c1ccccc1)CCC3,4.56
8,COC(=O)c1cn(C(=O)c2ccc(OC)cc2)c2ccccc12,13.3
9,CCCn1c(N)c(N(CCOC)C(=O)c2ccc([N+](=O)[O-])c(C)c2)c(=O)[nH]c1=O,14.2
10,CCOC(=O)c1c(C)n(C)c2cc(OCCN(CC)CC)ccc12,9.43
11,O=C(N/N=C\C1CC=CCC1)c1ccc(Br)o1 (stereo not shown),4.02
12,COc1cc(S(=O)(=O)NC2CCCCC2)ccc1Cl,3.16
13,CCOc1ccc(CN2CCN(S(=O)(=O)c3ccc(NC(C)=O)cc3)CC2)cc1OC.O=C(O)C(=O)O,-0.675
14,CCOc1ccc(C2c3[nH]c4ccccc4c3C[C@H]3C(=O)N(C4CCN(Cc5ccccc5)CC4)CC(=O)N23)cc1OC (stereo partly shown),12.2
15,Cc1c(CC(=O)N[C@H](C(=O)O)C(C)C)c(=O)oc2cc3c(cc12)CCC(C)(C)O3,10.5
16,NC(=O)/C(=C\c1ccncc1)c1cccc2ccccc12,19.7
17,Cc1ccc(S(=O)(=O)NNC(=S)Nc2cccc(F)c2)cc1,7.03
18,Cc1ccc(C(=O)NCC(=O)Nc2ncccc2C)s1,17.1
19,COc1cc(OC)nc(NC(=O)NS(=O)(=O)c2ccc(OC(F)(F)F)cc2)n1,16.3
20,O=C(NCCCO)C12CC3CC(CC(C3)C1)C2,26.5
21,CCN1C(=O)C(F)(CC)C(=O)c2ccccc21 (stereo not shown),7.71
22,COc1ccccc1N1CCN(CCN(C(=O)c2ccc(F)cc2)c2ccccn2)CC1.Cl,-57.8
23,O=C(Nc1cc(F)ccc1F)C1CCCN(c2ncnc3c2nc2n3CCCCC2)C1 (stereo not shown),7.35
24,O=C(CSc1ccc(Cl)cc1)NC(=O)c1ccccc1,-3.31
25,COc1ccccc1NC(=O)c1cnc2n(c1=O)CCS2,14.6
26,COc1ccc(CCNS(=O)(=O)c2ccc(-c3ccc(=O)[nH]n3)o2)cc1OC,12.4
27,COc1ccccc1NS(=O)(=O)c1ccc(NC(=O)CCNC(=O)c2ccco2)cc1,14.7
28,CCNC(=O)CN(c1ccc(CC)cc1)S(C)(=O)=O,9.01

row,Structure (SMILES),"hERG current change (%, negative = inhibition) at 1uM [%]"
1,CCCC(=O)N(c1ccc(OCC)cc1)C1C=CS(=O)(=O)C1 (stereo not shown),-7.3
2,CN1C/C(=C/c2ccncc2)C(=O)/C(=C/c2ccncc2)C1,25.8
3,O=C(CN(C(=O)CCC(=O)Nc1ccccn1)c1ccc2c(c1)OCO2)NCc1ccc(F)cc1,12
4,CCN(CC)C(=O)C1(P(=O)(c2ccccc2)c2ccccc2)CCC1,14.1
5,Cc1nn(C)c(C(=O)N2CCN(C(=O)c3ccco3)CC2)c1[N+](=O)[O-],8.09
6,CCNCc1cc(Cl)cc(OC)c1OC(C)C.Cl,4.48
7,Cc1noc(C)c1S(=O)(=O)Nc1ccc(C(=O)N2CCc3ccccc3C2)cc1,7.27
8,Cc1cc(C)n2cc(CSc3nncn3C)nc2n1,21.5
9,CCCCOC(=O)Nc1nnc(CCOCC)s1,2.39
10,CC(C)Cn1c(N)c(C(=O)COC(=O)CN2C(=O)C3CC=CCC3C2=O)c(=O)n(C)c1=O (stereo not shown),6.92
11,Nc1nonc1-n1nnc(C(=O)N/N=C/c2ccccc2F)c1-c1cccs1,13.3
12,Cc1cc(/C=C2\C(=O)NC(=O)N(c3ccccc3)C2=O)c(C)n1-c1ccc(C(=O)O)c(Cl)c1,13.2
13,CCOC(=O)CN1C(=O)S/C(=C\c2ccc(-c3cccc(C(=O)O)c3C)o2)C1=O,11.6
14,COc1ccc(CNC(=O)CN2c3ccccc3S(=O)(=O)c3ccccc32)cc1,2.07
15,Cn1c([O-])c(Cc2ccc(OCc3ccccc3)cc2)c(=O)n(C)c1=O.[NH4+],9.15
16,O=C1NC(=O)N(c2cccc(Br)c2)C(=O)/C1=C/c1ccsc1,8.15
17,CCCCn1c(N)c(N(CCOC)C(=O)c2cccc(OCc3ccccc3)c2)c(=O)[nH]c1=O,16.6
18,Cc1ccc(NC(=O)c2cc(=O)c3ccccc3o2)c(C)c1,11
19,Oc1ccc(Cl)cc1CNCc1ccc(Cl)cc1,21.9
20,C=CCc1ccc(OCCCNCc2ccccc2)c(OC)c1.O=C(O)C(=O)O,-6.92
21,COc1cccc(OC)c1C(=O)Nc1ccccc1N1CCCCC1,1.39
22,C=CCCCCCCCCC(=O)Nc1c[nH]c(=O)[nH]c1=O,5.88
23,Cc1ccc(C(=O)CCC(=O)OCc2nnc(-c3ccccc3)o2)cc1,-3.62
24,Cc1ccc(S(=O)(=O)N(CC(=O)N/N=C/c2ccccc2C(=O)O)c2cc(Cl)cc(Cl)c2)cc1,14.9
25,Cl.Clc1ccc(CNCC2CCCO2)c(Cl)c1 (stereo not shown),4.99
26,COc1ccc(N(CC(=O)NCCSc2ccccc2)S(=O)(=O)c2ccccc2)cc1,12
27,CC(NC(=O)C(=O)N1CCCCC1)C(c1cccs1)N1CCN(c2ccccc2)CC1 (stereo not shown),-0.832
